Out of some 220,000 compounds screened, about 5,700 (2.6%) were called active. Inconclusive results, whose numbers are uncertain, are shown with a selection of clear calls. The call rests on the fitted dose curve; in most records, active means well fitted inhibition curve with a large enough effect; inconclusive means small, poorly fitted or top-dose-only effect; inactive means no such curve, though single readings can be large or run the other way. Where the call is inconclusive, the potency comes from a doubtful curve fit.
Target: Lysine-specific demethylase 5B (Homo sapiens) (UniProt Q9UGL1)
Experiment: Primary screen for KDM5B Histone Demethylases FDH-coupled qHTS; further: nearly all actives have a fitted effect of over 70% in size
Details: FDH-coupled NADH fluorescence (FDH is formaldehyde dehydrogenase); series mostly up to 57.7 µM
Outline: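 qHTS format, multiple compound concentrations. Buffer 50 mM HEPES pH 7.5/0.01% Tween-20; 200 nM KDM5BΔAP final; 10 min compound preincubation; substrate-mix levels 12.5 µM peptide, 25 µM α-KG, 0.25 mM NAD⁺; 30 min RT; ΔRFU.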
Potency means the concentration at half of the fitted maximal effect; tags describe the fitted curve by direction and shape.

UniProt Q9UGL1, sequence (Q9UGL1 whole entry, looked up): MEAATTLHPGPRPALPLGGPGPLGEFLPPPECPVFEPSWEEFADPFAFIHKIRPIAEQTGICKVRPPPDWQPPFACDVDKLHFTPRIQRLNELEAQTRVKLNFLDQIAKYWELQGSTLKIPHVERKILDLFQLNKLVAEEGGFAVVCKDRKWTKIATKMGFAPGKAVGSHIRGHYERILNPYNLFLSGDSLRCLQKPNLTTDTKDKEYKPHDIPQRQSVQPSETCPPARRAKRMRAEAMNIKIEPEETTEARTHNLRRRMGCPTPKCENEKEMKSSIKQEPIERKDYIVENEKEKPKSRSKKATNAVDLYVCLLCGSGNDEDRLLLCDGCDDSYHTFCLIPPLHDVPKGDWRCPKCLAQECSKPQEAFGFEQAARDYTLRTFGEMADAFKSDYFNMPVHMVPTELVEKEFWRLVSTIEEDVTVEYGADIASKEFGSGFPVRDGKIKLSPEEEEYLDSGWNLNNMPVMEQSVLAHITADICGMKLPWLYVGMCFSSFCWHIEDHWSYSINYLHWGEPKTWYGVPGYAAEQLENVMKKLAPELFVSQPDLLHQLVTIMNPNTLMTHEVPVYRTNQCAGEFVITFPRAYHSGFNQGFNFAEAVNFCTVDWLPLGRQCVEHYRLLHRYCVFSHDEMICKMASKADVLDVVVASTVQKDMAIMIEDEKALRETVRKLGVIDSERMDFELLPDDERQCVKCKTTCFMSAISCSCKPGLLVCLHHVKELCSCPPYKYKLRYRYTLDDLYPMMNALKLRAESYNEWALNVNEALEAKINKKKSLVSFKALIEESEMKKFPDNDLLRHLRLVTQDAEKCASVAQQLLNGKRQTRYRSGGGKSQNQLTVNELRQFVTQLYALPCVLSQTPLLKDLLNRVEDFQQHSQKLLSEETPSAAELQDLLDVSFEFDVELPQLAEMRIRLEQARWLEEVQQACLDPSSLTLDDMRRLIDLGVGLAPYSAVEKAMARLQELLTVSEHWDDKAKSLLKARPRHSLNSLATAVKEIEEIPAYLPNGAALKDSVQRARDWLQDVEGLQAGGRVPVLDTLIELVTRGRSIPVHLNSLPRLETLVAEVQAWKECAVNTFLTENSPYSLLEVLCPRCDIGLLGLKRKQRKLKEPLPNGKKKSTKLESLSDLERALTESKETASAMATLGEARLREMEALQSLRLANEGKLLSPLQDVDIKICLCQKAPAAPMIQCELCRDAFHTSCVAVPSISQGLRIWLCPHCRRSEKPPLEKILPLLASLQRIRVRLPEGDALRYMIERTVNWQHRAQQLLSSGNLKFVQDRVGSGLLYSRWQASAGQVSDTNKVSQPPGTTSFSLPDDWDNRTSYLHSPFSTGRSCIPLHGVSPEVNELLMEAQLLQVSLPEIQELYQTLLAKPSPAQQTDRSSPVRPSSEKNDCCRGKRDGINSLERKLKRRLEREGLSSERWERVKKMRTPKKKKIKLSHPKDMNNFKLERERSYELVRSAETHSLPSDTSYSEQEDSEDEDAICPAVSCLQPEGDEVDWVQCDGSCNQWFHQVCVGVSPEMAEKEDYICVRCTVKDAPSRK

Which Potency does the source give for `COc1ccc(CCc2nc3nccc(-c4ccc(OC)cc4F)n3n2)cc1` here?
The Potency was active: 22.4 µM.

`COc1ccc(C(=O)NCCn2ccn3nc(-c4ccc(C)c(C)c4)cc3c2=O)cc1F` was tested. Which Potency did it give?
Its Potency is inconclusive: 39.8 µM [inhibitor, single point].

With `CCCCNC(=O)C1c2ccccc2C(=O)N(CCOC)C12CCCCC2` (configuration not stated) as the compound, how does the Potency read?
The Potency was “inactive”.

Which Potency does the source give for `OCc1cccc(-c2cc(-c3cccnc3)c3cncn3c2)c1` here?
The Potency was inconclusive: 39.8 µM [inhibitor, partial curve, poor fit].

`COc1ccc(-c2nn(C)c3sc(C(=O)N4CCN(c5cc(Cl)ccc5C)CC4)cc23)cc1OC` was tested. Which Potency did it give?
The Potency was inconclusive: 31.6 µM [inhibitor, partial curve, poor fit].

How did the Potency turn out when `CCN(CC)c1cc(CCC(=O)N2CCN(c3ncccn3)CC2)ccn1` was run?
The Potency was inconclusive: 14.1 µM [inhibitor, partial curve].

With `CN1CC[C@H](c2nc3ccc(C(F)(F)F)cc3[nH]2)C1` as the compound, how does the Potency read?
The Potency was inconclusive: 35.5 µM [inhibitor, single point].

With `Cc1nc2cc(-c3cccc(F)c3)nn2c(C)c1CCC(=O)NC1CCCCC1` as the compound, how does the Potency read?
Its Potency is inconclusive: 39.8 µM [inhibitor, single point].

Which Potency does the source give for `Cc1c(CCC(=O)Nc2nccs2)c(=O)oc2c(C)c(O)ccc12` here?
The Potency was inconclusive: 39.8 µM [inhibitor, partial curve, poor fit].

`COCC1CN(S(=O)(=O)c2ccc(C)c(F)c2)CC12CCNCC2` (configuration not stated) was tested. Which Potency did it give?
Its Potency is inconclusive: 0.794 µM [inhibitor, full curve, poor fit].

How did the Potency turn out when `CC(=O)c1ccc(NS(=O)(=O)c2ccc3[nH]c4c(c3c2)CCCCCC4)cc1` was run?
The Potency was “inactive”.

`CCOc1ccccc1NC(=O)c1ccc(C)c(S(=O)(=O)Nc2cccc(C)c2C)c1` was tested. Which Potency did it give?
Its Potency is inconclusive: 39.8 µM [inhibitor, single point].

With `CCc1ccc(N2CC(c3noc(-c4nccc5ccccc45)n3)CC2=O)cc1` (configuration not stated) as the compound, how does the Potency read?
Its Potency is active: 31.6 µM.

`Cn1c(=S)[nH]c2sc3c(c2c1=O)CCC(C(C)(C)C)C3` (configuration not stated) was tested. Which Potency did it give?
Its Potency is inconclusive: 28.2 µM [inhibitor, partial curve, poor fit].

How did the Potency turn out when `COc1cc(-c2nc3cc(NC(=O)c4ccccc4)ccc3o2)cc(OC)c1OC` was run?
The Potency was inconclusive: 31.6 µM [inhibitor, partial curve, poor fit].

`O=C1CC2CCN(Cc3c(F)cccc3Cl)CC2CCN1` (configuration not stated) was tested. Which Potency did it give?
The Potency was “inactive”.

Which Potency does the source give for `N#C/C(=C\c1cc(Br)c(Br)o1)c1nc2ccccc2[nH]1` here?
The Potency was inconclusive: 35.5 µM [inhibitor, partial curve, poor fit].

`COc1ccc(/C=C(\C#N)c2nc3ccccc3[nH]2)c(OC)c1` was tested. Which Potency did it give?
The Potency was inconclusive: 11.2 µM [inhibitor, partial curve, poor fit].

`O=C(Cc1c[nH]c2ncc(-c3ccc(F)cc3)cc12)NCc1cccnc1` was tested. Which Potency did it give?
The Potency was active: 28.2 µM.

Which Potency does the source give for `O=[N+]([O-])c1cccc2nc(/C=C/c3ccc(O)cc3)ccc12` here?
Its Potency is “inactive”.

For `CCCNC(=O)C(C)OC(=O)c1cc2ccc(OC)cc2nc1C` (configuration not stated), which Potency is on record?
The Potency was inconclusive: 8.91 µM [inhibitor, partial curve, poor fit].

How did the Potency turn out when `CCOC(=O)c1c(NC(=O)COC(=O)c2ccc(O)cc2)sc(C(=O)NC)c1C` was run?
The Potency was inconclusive: 31.6 µM [inhibitor, single point].

Which Potency does the source give for `Cc1ccc(CN2CCc3nc(C(=O)Nc4ccc(Cl)cc4)oc3CC2)cc1` here?
Its Potency is active: 35.5 µM.

With `COc1ccccc1N1CCN(C(=O)CN2C(=O)NC(c3ccc(C)cc3)C3=C2COC3=O)CC1` (configuration not stated) as the compound, how does the Potency read?
The Potency was “inactive”.

How did the Potency turn out when `CCOC(=O)c1cc(-c2ccccc2)n(CCC(=O)NCCc2cccc(C)c2)c1C` was run?
Its Potency is inconclusive: 25.1 µM [inhibitor, partial curve, poor fit].

Which Potency does the source give for `COc1ccc(CCNC(=O)c2cccnc2N2CC3CC(C2)[C@H]2CCCC(=O)N2C3)cc1OC` (some centres not stated) here?
Its Potency is inconclusive: 31.6 µM [inhibitor, partial curve, poor fit].

With `CCCCS(=O)(=O)N[C@@H]1CN(C2CCOCC2)C[C@H]1CN(C)C` as the compound, how does the Potency read?
The Potency was “inactive”.

Which Potency does the source give for `COc1cccc(C2/C(=C(\O)c3ccc4c(c3)OCCO4)C(=O)C(=O)N2CCc2ccccc2)c1` (configuration not stated) here?
Its Potency is “inactive”.

How did the Potency turn out when `CCCCNc1oc(-c2ccc(COc3ccccc3C)o2)nc1C#N` was run?
Its Potency is inconclusive: 15.8 µM [inhibitor, partial curve, poor fit].

For `CS(=O)(=O)N1CCCc2cc(C(=O)Nc3cccc(-c4nnc5n4CCCCC5)c3)ccc21`, which Potency is on record?
The Potency was “inactive”.

Which Potency does the source give for `CCCCN1CCCc2cc(CN(CCCN3CCOCC3)C(=O)Nc3ccc(CC)cc3)ccc21` here?
Its Potency is inconclusive: 17.8 µM [inhibitor, partial curve, poor fit].

How did the Potency turn out when `CC(C)(C)NC(=O)/C(C#N)=C\c1ccc(OC(F)F)cc1` was run?
The Potency was inconclusive: 39.8 µM [inhibitor, single point].

With `CCOC(=O)c1cc(S(=O)(=O)Nc2ccc3c(c2)OCCO3)[nH]n1` as the compound, how does the Potency read?
Its Potency is “inactive”.

With `COc1ccc(C(=O)N2CCC3(C2)C(=O)N(CCc2ccccc2)c2ccccc23)cc1` (configuration not stated) as the compound, how does the Potency read?
Its Potency is “inactive”.

`O=C(CN1CCCC1=O)N1CCC(C2CCNC2)CC1` (configuration not stated) was tested. Which Potency did it give?
The Potency was “inactive”.

Which Potency does the source give for `CC(C)N1C[C@H](O)C[C@H]1c1nnc2n1CCN(C(=O)C1CCC1)CC2` here?
The Potency was inconclusive: 39.8 µM [inhibitor, single point].

For `CCOc1cc(CNc2ccc(N3CCOCC3)c(C(=O)O)c2)cc(Br)c1OCC`, which Potency is on record?
The Potency was inconclusive: 39.8 µM [inhibitor, single point].

With `O=C(NCc1ccc(F)cc1)c1cc2cccc3c2n1CCS3` as the compound, how does the Potency read?
Its Potency is inconclusive: 31.6 µM [inhibitor, partial curve, poor fit].

Which Potency does the source give for `CC(C)c1noc(-c2cccn3c(CNC(=O)c4nccc5ccccc45)nnc23)n1` here?
The Potency was inconclusive: 17.8 µM [inhibitor, single point].

For `CC(C)n1cnnc1CN1CCN(Cc2ccccn2)[C@@H]2CS(=O)(=O)C[C@@H]21`, which Potency is on record?
The Potency was inconclusive: 15.8 µM [inhibitor, partial curve].

For `Brc1ccccc1OCCN1CCCC1`, which Potency is on record?
The Potency was inconclusive: 2.82 µM [inhibitor, full curve, poor fit].

With `Cc1ccc(C)c(NC(=O)C(Cc2ccccc2)n2cccc2)c1` (configuration not stated) as the compound, how does the Potency read?
The Potency was inconclusive: 44.7 µM [inhibitor, single point].

Source: PubChem BioAssay AID1347165 (National Center for Advancing Translational Sciences (NCATS), 2019)
